In all, about 81,000 sequences were measured (“one-hybrid fitness for binding NBS DNA”: median about -0.1, highest 2% from about 0.36 on). The list shows a part of the results.

B1: Caulobacter ParB omega fusion; a variant is named by its letters at X, in order, B8GW30 (parent)
chain: MESVVVGEPGMSEGRRGLGRGLSALLGEVDAAPAQAPGEQLGGSREAPIEILQRNPDQPRRTFREEDLEDLSNSIREKGVLQPILVRPSPDTAGEYQIVAGERAWRAAQRAGLKTVPIMVRELDDLAVLEIGIIENVQRADLNVLEEALSYKVLMEKFERTQENIAQTIGKSXSHVANXMRLLXLPDEVQSYLVSGELTAXHARAIAAAADPVALAKQIIEGGLSVRETEALARKAPNLSAGKSKGGRPPRVKDTDTQALESDLSSVLGLDVSIDHRGSTGTLTITYATLEQLDDLCNRLTRGI

In this assay the parent is B1. Description: one-hybrid fitness for binding NBS DNA (the Noc-binding site; scaled: cognate 1, non-cognate 0); higher = stronger binding. The conditions noted are these: with NBS DNA site. The essentials: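 Caulobacter ParB libraries with four specificity codons randomised were screened by bacterial one-hybrid selection in the E. coli USO strain, using a HIS3 reporter whose site lies 19 bp from the promoter. Selection ran for 48 hours at 37°C on M9 lacking histidine, with 0.1 mM IPTG and 5 mM 3-AT. Plasmids were Illumina-sequenced before and after selection, three replicate libraries were pooled, and variants with under 10 reads were dropped. Fitness is the log change in each variant's read ratio to wild type, rescaled against the cognate and non-cognate sites.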
As for ETMG, the “one-hybrid fitness for binding NBS DNA” value was at most 0.2. For RYRL, the “one-hybrid fitness for binding NBS DNA” value was at most 0.2. Consider LPQS, for which the “one-hybrid fitness for binding NBS DNA” value is at most 0.2.

For KVCS, the “one-hybrid fitness for binding NBS DNA” value was at most 0.2. To RRYW belongs at most 0.2; to MHST, at most 0.2; to RFMR, at most 0.2. To RTLM belongs at most 0.2; to VNSS, at most 0.2. For YATL, the “one-hybrid fitness for binding NBS DNA” value is at most 0.2. The value for TTYC was at most 0.2; that for YKLG was at most 0.2; that for VMKI was at most 0.2. To VHAG belongs at most 0.2; to PDAD, at most 0.2; to HRWS, at most 0.2.

As to CYMS, the “one-hybrid fitness for binding NBS DNA” value is at most 0.2. With FRSM, the “one-hybrid fitness for binding NBS DNA” value was at most 0.2.

As to PSGS, the “one-hybrid fitness for binding NBS DNA” value is at most 0.2. On to VEIY, for which the “one-hybrid fitness for binding NBS DNA” value was at most 0.2. To QPKG belongs at most 0.2; to PASC, at most 0.2; to FDTV, at most 0.2.

Regarding HWTY, the “one-hybrid fitness for binding NBS DNA” value is at most 0.2. Take SYCS: the “one-hybrid fitness for binding NBS DNA” value is at most 0.2.

On to IVPY, for which the “one-hybrid fitness for binding NBS DNA” value was at most 0.2. The value for QAER was 0.304; that for IDHM was at most 0.2; that for VAWQ was at most 0.2. The value for WVCG was at most 0.2.

VWPS: the “one-hybrid fitness for binding NBS DNA” value is at most 0.2.

Regarding RDHE, the “one-hybrid fitness for binding NBS DNA” value was at most 0.2. Take CSAG: the “one-hybrid fitness for binding NBS DNA” value was at most 0.2. In the case of FVVC, the “one-hybrid fitness for binding NBS DNA” value is at most 0.2. The value for QCRE was 0.369. In the case of VKMS, the “one-hybrid fitness for binding NBS DNA” value was at most 0.2. To YFTV belongs at most 0.2; to AKYC, at most 0.2; to GHSY, at most 0.2. Take FMEG: the “one-hybrid fitness for binding NBS DNA” value was at most 0.2. The value for QTLL was at most 0.2; that for STSH was at most 0.2; that for QLYS was 0.252. To AVPG belongs at most 0.2. For the variant HSSN, the “one-hybrid fitness for binding NBS DNA” value was at most 0.2. On to TQVY, for which the “one-hybrid fitness for binding NBS DNA” value was at most 0.2. Take ISSN: the “one-hybrid fitness for binding NBS DNA” value was at most 0.2. For the variant HPMR, the “one-hybrid fitness for binding NBS DNA” value is at most 0.2.

For the variant PCFK, the “one-hybrid fitness for binding NBS DNA” value is at most 0.2.

Consider RAEH, for which the “one-hybrid fitness for binding NBS DNA” value was at most 0.2. To KSTF belongs at most 0.2; to LLSH, at most 0.2.

NNMV: the “one-hybrid fitness for binding NBS DNA” value is at most 0.2. The value for ANWN was at most 0.2; that for VAIS was at most 0.2; that for GILV was at most 0.2. The value for QMES was 0.268; that for KWHR was at most 0.2; that for RLAI was at most 0.2. The value for DGLV was at most 0.2. Regarding DWRT, the “one-hybrid fitness for binding NBS DNA” value is at most 0.2.

Take NFIG: the “one-hybrid fitness for binding NBS DNA” value was at most 0.2. The value for ETVY was at most 0.2; that for KRPV was at most 0.2; that for CFNT was at most 0.2.

GLYM: the “one-hybrid fitness for binding NBS DNA” value was at most 0.2. To WSLF belongs at most 0.2.

Turning to CLHT, the “one-hybrid fitness for binding NBS DNA” value is at most 0.2. The value for RRFY was 0.314. Consider SEHV, for which the “one-hybrid fitness for binding NBS DNA” value was at most 0.2.

With CQPG, the “one-hybrid fitness for binding NBS DNA” value was at most 0.2. The value for RLEP was at most 0.2; that for DKPK was at most 0.2. In the case of IQYC, the “one-hybrid fitness for binding NBS DNA” value was at most 0.2. To DCLV belongs at most 0.2; to WKST, at most 0.2. The value for KSYK was at most 0.2; that for YVMG was at most 0.2; that for VWTA was at most 0.2. To RWFY belongs at most 0.2; to AAVI, at most 0.2. Regarding YDVS, the “one-hybrid fitness for binding NBS DNA” value is at most 0.2.

Regarding SVLI, the “one-hybrid fitness for binding NBS DNA” value was at most 0.2. The value for TIGF was at most 0.2. To MRAS belongs at most 0.2.

FGCT: the “one-hybrid fitness for binding NBS DNA” value was at most 0.2. The value for TPDS was at most 0.2; that for NYAG was at most 0.2. To RKAS belongs 0.597. To ALPF belongs at most 0.2; to FVLQ, at most 0.2; to HMFG, at most 0.2. Take GIAS: the “one-hybrid fitness for binding NBS DNA” value was at most 0.2. To QVLM belongs at most 0.2. To STAK belongs at most 0.2; to SYKA, at most 0.2. To WGTW belongs at most 0.2; to RWTW, at most 0.2; to LDGG, at most 0.2. Consider AGAR, for which the “one-hybrid fitness for binding NBS DNA” value was at most 0.2. For STGC, the “one-hybrid fitness for binding NBS DNA” value was at most 0.2.

Regarding DHWR, the “one-hybrid fitness for binding NBS DNA” value is at most 0.2.

Take SNTG: the “one-hybrid fitness for binding NBS DNA” value is at most 0.2.

For GQYP, the “one-hybrid fitness for binding NBS DNA” value was at most 0.2.

In the case of KEKR, the “one-hybrid fitness for binding NBS DNA” value was at most 0.2.

For the variant ILRR, the “one-hybrid fitness for binding NBS DNA” value was at most 0.2. The value for NAYI was at most 0.2; that for TANF was at most 0.2. For KKKM, the “one-hybrid fitness for binding NBS DNA” value was at most 0.2. As to VAWT, the “one-hybrid fitness for binding NBS DNA” value is at most 0.2.

LKAD: the “one-hybrid fitness for binding NBS DNA” value was at most 0.2. For the variant PLNQ, the “one-hybrid fitness for binding NBS DNA” value is at most 0.2. The value for SALG was at most 0.2. To NRQR belongs at most 0.2; to MLLY, at most 0.2. To GYRC belongs at most 0.2. Consider LAGN, for which the “one-hybrid fitness for binding NBS DNA” value was at most 0.2.

Turning to GRVC, the “one-hybrid fitness for binding NBS DNA” value is at most 0.2. Consider SLRR, for which the “one-hybrid fitness for binding NBS DNA” value was at most 0.2.

AKAY: the “one-hybrid fitness for binding NBS DNA” value is at most 0.2. For GARL, the “one-hybrid fitness for binding NBS DNA” value was at most 0.2.

With SQYV, the “one-hybrid fitness for binding NBS DNA” value was at most 0.2.

For VTSR, the “one-hybrid fitness for binding NBS DNA” value was at most 0.2. On to LNQK, for which the “one-hybrid fitness for binding NBS DNA” value is at most 0.2. HRAA: the “one-hybrid fitness for binding NBS DNA” value is at most 0.2. RHLR: the “one-hybrid fitness for binding NBS DNA” value stood at 0.329. The value for LRSW was at most 0.2; that for HRVS was at most 0.2.

As to MTND, the “one-hybrid fitness for binding NBS DNA” value is at most 0.2.

Turning to KVPR, the “one-hybrid fitness for binding NBS DNA” value is at most 0.2. To FSQR belongs at most 0.2; to EGRT, at most 0.2. The value for SWHY was at most 0.2; that for AYDR was at most 0.2; that for PGSR was at most 0.2. Consider FNNG, for which the “one-hybrid fitness for binding NBS DNA” value is at most 0.2.

Take LEST: the “one-hybrid fitness for binding NBS DNA” value was at most 0.2.

As to CISS, the “one-hybrid fitness for binding NBS DNA” value was at most 0.2. With TVKH, the “one-hybrid fitness for binding NBS DNA” value was at most 0.2. As to IDAK, the “one-hybrid fitness for binding NBS DNA” value was at most 0.2. The value for KLDL was at most 0.2; that for PISG was at most 0.2; that for QFPS was at most 0.2.

For the variant LNPD, the “one-hybrid fitness for binding NBS DNA” value is at most 0.2. Turning to DLYL, the “one-hybrid fitness for binding NBS DNA” value was at most 0.2. The value for RFEA was at most 0.2; that for TRKH was 0.364; that for PNLR was at most 0.2.

In the case of ITSK, the “one-hybrid fitness for binding NBS DNA” value was at most 0.2. To HKFS belongs at most 0.2; to QGVA, at most 0.2; to TDQT, at most 0.2. Take WRTS: the “one-hybrid fitness for binding NBS DNA” value was at most 0.2.

The values are drawn from a collection of fitness landscapes (doi:10.1016/j.celrep.2020.107928).
